Earlier results on one compound are cited in patent US8329689B2 (priority 2006, dated 2012).

The subject of one series is influenza virus. As to conditions: cited from earlier work.
Another series deals with cellular line MDCK. The settings on record: cited from earlier work.

Consider `CCOC(=O)c1c(CSc2ccccc2)n(C)c2cc(Br)c(O)c(CN(C)C)c12.Cl` [Arbidol, ethyl 6-bromo-4-[(dimethylamino)methyl]-5-hydroxy-1-methyl-2-(phenylthiomethyl)-1H-indole-3-carboxylate hydrochloride], for which, in the series with influenza virus, the “selectivity index (SI50) for influenza virus” value was 2.69. In addition, in the series with cellular line MDCK, the TC50 was 62.5 µg/mL.
